The record followed here is PubChem BioAssay AID1745853 (National Center for Advancing Translational Sciences (NCATS), 2022).

Several values for one entry are separate records, joined by “and”; a condition that tells them apart may be missing. Equal values may be shown once. The list shows a part of the results. These are further read-outs of the screen, such as a control signal, another cell line or another target. No call is given for them.

Experiment in all cases: Primary Screen for Target Class Profiling of Small Molecule Inhibitors of Methyltransferases
Assay [1] deals with Glycine N-methyltransferase (Homo sapiens) (UniProt Q14749). The note with it: purified enzyme, MTase-Glo SAH luminescence; measured here: GNMT inhibition; at 40 µM; stronger effect = lower value. An outline of the steps:
(§1)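 Each enzyme was assayed with SAM and its substrate. SAH formation detected by MTase-Glo luminescence; single-point 40 uM screen[…].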

Assay [2] deals with Guanidinoacetate N-methyltransferase (Homo sapiens) (UniProt Q14353). The note with it: purified enzyme, MTase-Glo SAH luminescence; measured here: GAMT inhibition; at 40 µM; stronger effect = lower value. An outline of the steps: as §1
Assay [3] concerns the target Histamine N-methyltransferase (Homo sapiens) (UniProt P50135). To be noted: purified enzyme, MTase-Glo SAH luminescence; measured here: HNMT inhibition; at 40 µM; stronger effect = lower value. An outline of the steps:
as §1

The target of assay [4] is Nicotinamide N-methyltransferase (Homo sapiens) (UniProt P40261). The note with it: purified enzyme, MTase-Glo SAH luminescence; measured here: NNMT inhibition; at 40 µM; stronger effect = lower value. In a few lines:
as §1

Assay [5] has as its target Phenylethanolamine N-methyltransferase (Homo sapiens) (UniProt P11086). To be noted: purified enzyme, MTase-Glo SAH luminescence; measured here: PNMT inhibition; at 40 µM; stronger effect = lower value. In a few lines: as §1
On the % scale 0 is the no-effect control and ±100 the full control effect.

`CC(C)n1c(=O)c2ccc(C(=O)NC3CCCCC3)cc2n2c(=O)n(Cc3ccc(Cl)cc3)nc12`: the activity change, negative = inhibition is 2.1% in assay [1]; 0% in assay [2]; 8.55% in assay [3]; 5.93% in assay [4]; 6.13% in assay [5].
The like results for `COc1ccc(C2=NC(c3ccc(Cl)cc3)C(c3ccc(Cl)cc3)N2C(=O)N2CCNC(=O)C2)c(OC(C)C)c1` (stereo not given) were, in that order, 1.28%, 16.8%, 11%, -37% and 10.7%.
Taken in the same sequence, the figures for `CCC(C)NC(=O)c1ccc2c(=O)n(C)c3nn(CC(=O)c4ccc(C)cc4)c(=O)n3c2c1` (stereo not given) were 4.13%, 1.12%, 5.91%, 5.12% and 4.77%.
Taken in the same sequence, the figures for `Cc1ccc(C(=O)Cn2nc3n(Cc4ccc(F)cc4)c(=O)c4ccccc4n3c2=O)c(C)c1` were 5.01%, 0%, 8.63%, 5.78% and 5.33%.
With `CCc1ccccc1NC(=O)c1ncn2c1C(=O)N(C1CC1)C(C)(C(=O)NC1CCCC1)C2` (stereo not given), the activity change, negative = inhibition in assay [1] was -7.75%; in assay [2], 4.81%; in assay [3] it was -4.04%; in assay [4] it was -8.37%; in assay [5] it was -6.84%.
Taken in the same sequence, the figures for `COc1ccc2cc3n(c2c1)CC(C)(C(=O)NC1CCCCC1)N(c1ccccc1OC)C3=O` (stereo not given) were 4.16%, 2.74%, 6.4%, -3.95% and 0.142%.
Taken in the same sequence, the figures for `CCNC(=O)N1CCC(CCOC)(NS(=O)(=O)c2cccc3cccnc23)CC1` were 0.121%, 0.726%, 1.71%, -2.86% and -1.46%.
Taken in the same sequence, the figures for `CN1C(=O)c2cc(C(=O)NCc3ccccc3)nn2CC1(C)C(=O)NC1CCCCCC1` (stereo not given) were -1.07%, 0%, 3.52%, -3.36% and 0.396%.
As to `CCN(CC)CCNC(=O)c1c(C)[nH]c(/C=C2\C(=O)Nc3ccc(F)cc32)c1C`, the activity change, negative = inhibition in assay [1] was -23.3%; in assay [2], -7.77%; in assay [3] it was -33.6%; in assay [4], -16.7%; in assay [5], -19.3%.
The like results for `CCCN1C(=O)c2cc3c(OC)ccc(OC)c3n2CC1(C)C(=O)NC1CCCC1` (stereo not given) were, in that order, -21.8%, -1.03%, -3.2%, -5.38% and -21.9%.
The like results for `CC(=O)Nc1ccc(Nc2nc3c(S(=O)(=O)c4ccc(Br)cc4)nnn3c3ccccc23)cc1` were, in that order, -12.3%, 0%, 4.17%, -1.29% and -5.25%.
As to `COc1ccc(/C=C/C(=O)Nc2ccccc2C(=O)O)cc1OC`, the activity change, negative = inhibition in assay [1] was -18.3% and -27.8%; in assay [2] it was -2.15% and -2.83%; in assay [3] it was -2.23% and -10.8%; in assay [4], -15.9% and -14.4%; in assay [5] it was -3.79% and -4.18%.
Take `CCCN1C(=O)c2c(C(=O)NCc3ccccc3C)ncn2CC1(C)C(=O)NCCC(C)C` (stereo not given): the activity change, negative = inhibition in assay [1] is 1.61%; in assay [2], 2.08%; in assay [3], 2.47%; in assay [4], -0.523%; in assay [5], 6.09%.
The like results for `CCOc1cc2ncc(C#N)c(Nc3ccc(F)c(Cl)c3)c2cc1NC(=O)/C=C/CN(C)C` were, in that order, -95.8%, -95.7%, -94.5%, -98.5% and -96.5%.
`CC1(C(=O)NC2CCCCCC2)Cn2nc(C3CC3)cc2C(=O)N1Cc1cccc(Br)c1` (stereo not given): the activity change, negative = inhibition was -6.5% in assay [1]; 3.24% in assay [2]; -0.886% in assay [3]; -12.8% in assay [4]; -2.22% in assay [5].
The like results for `COc1ccc(OC)c(S(=O)(=O)N2CCC(n3c(C)cnc3C3CC3)CC2)c1` were, in that order, 0.301%, 0%, -5.71%, 2.24% and 3.88%.
For `CCCc1c(-c2ccc(O)cc2)nn(-c2ccc(O)cc2)c1-c1ccc(O)cc1`, the activity change, negative = inhibition was -22.1% in assay [1]; -6.7% in assay [2]; -7.73% in assay [3]; -51% in assay [4]; -13.8% in assay [5].
Taken in the same sequence, the figures for `CCCC1c2cccn2CCN1C(=O)Nc1cccc(Cl)c1C` (stereo not given) were -3.29%, 1.68%, -35.1%, -0.853% and 4.46%.
Consider `CCc1ccc(N2C(=O)c3cc4ccccc4n3CC2(C)C(=O)NCCC(C)C)cc1` (stereo not given), for which the activity change, negative = inhibition in assay [1] is 4.78%; in assay [2] it was 0.164%; in assay [3], 10.4%; in assay [4], 2.3%; in assay [5], 0.914%.
The like results for `O=C(N[C@H]1CO[C@H]2[C@@H]1OC[C@@H]2Nc1nccc(C2CCCC2)n1)c1ccco1` were, in that order, -13.5%, -0.939%, -2.65%, -17.8% and -16%.
The like results for `CC1(C(=O)NC2CCCCCC2)Cn2c(cc3sccc32)C(=O)N1c1cccc(F)c1` (stereo not given) were, in that order, 4.26%, 0.46%, 4.77%, 8.52% and 0.615%.
`CC1(C(=O)NC2CCCC2)Cn2c(c(-n3cccc3)c3ccccc32)C(=O)N1Cc1cccnc1` (stereo not given): the activity change, negative = inhibition is 7.01% in assay [1]; 0% in assay [2]; 4.88% in assay [3]; 0.37% in assay [4]; 4.48% in assay [5].
Taken in the same sequence, the figures for `C=C[C@](C)(CC/C=C(\C)C(=O)O)O[C@@H]1OC[C@H](O)[C@H](O)[C@H]1O` were 0.463%, 0.339%, 7.41%, -12.1% and -0.449%.
For the compound `CC(C)(C)Nc1nc(Nc2ccc(C(N)=O)cc2)cc(N)c1C#N`, the activity change, negative = inhibition in assay [1] was -27.4%; in assay [2], -2.49%; in assay [3] it was -24%; in assay [4] it was -21.6%; in assay [5] it was -11.3%.
